The supplement of paper PMC5499739
Whole data set: some 16,000 sequences, median “Z-score” near -0.37, cut for the highest 2% near 3.1. The list shows a part of the results.

Tested on: RBM10 RRM1-ZnF-RRM2 (GST-tagged construct)
Test: RNAcompete 7-mer binding Z-score; higher = stronger binding preference
Procedure, shortened: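 Bound RNA was identified by microarray hybridisation after GST-tagged RBM10 constructs (20 pmol) had been mixed with 1.5 nmol of a designed pool of 241 399 RNAs up to 41 nt, transcribed from microarray-derived DNA templates. Binding ran for 30 min at 4°C in 1 ml Hepes pH 7.8 buffer with KCl, NaCl, glycerol, DTT, BSA and glutathione Sepharose beads, with four 2-min washes at 4°C afterwards. For every heptamer motif, a one-sided Z-score for enrichment was computed across the probes that contained it.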

Row | Sequence | RNAcompete 7-mer binding Z-score
1 | CAAGGCU | -0.067
2 | GUUGGUU | 0.45
3 | ACGCUAU | -0.555
4 | ACGACUC | -0.817
5 | CGACCUG | -0.814
6 | GCUGGAG | 0.829
7 | GCCAAGU | -0.519
8 | GUUCGGC | -0.111
9 | CGCACAA | -0.628
10 | AGAUCAA | -0.333
11 | ACUGAUC | -0.77
12 | AUGAACA | 0.505
13 | GCCAAUG | 0.228
14 | GUAGUUC | -0.22
15 | UGGGCUG | 1.59
16 | AGCGCCC | -0.646
17 | GUCGAUC | -0.267
18 | CUGCACC | -0.581
19 | ACACUGG | 0.224
20 | UAUACAU | -0.464
21 | CCCAUCU | -0.861
22 | AUGAGUU | 0.13
23 | AGACAAG | 0.603
24 | CCUAAAU | -0.825

Row | Sequence | RNAcompete 7-mer binding Z-score
25 | AGGCAAG | 1.55
26 | UAAAUUA | -0.497
27 | AAGCAGC | 0.0969
28 | ACAUCCC | -0.515
29 | ACGCGCC | -0.635
30 | UAUGGUA | 1.32
31 | GUACGCG | 0.545
32 | GCAGGCC | 0.0131
33 | GGCACGG | 1.74
34 | CUUUCAU | -0.854
35 | UCAAUAG | 0.104
36 | ACACCAC | -0.395
37 | UUAGUGG | 1.34
38 | AGGCCCC | -0.726
39 | ACUACGG | 0.355
40 | CUAUCCG | -0.865
41 | GCCAGUG | 0.235
42 | UAAGCUG | -0.362
43 | UUAGCCG | -0.748
44 | UGUCGUA | -0.202
45 | AUCCGAA | -0.537
46 | CGAAAAG | 0.323
47 | UCUUUGU | -0.792
48 | GACGGAG | 2.01

Row | Sequence | RNAcompete 7-mer binding Z-score
49 | CACCCAG | -0.639
50 | UGACUUG | -0.679
51 | CCAUGAU | -0.573
52 | UCUUGUC | -0.81
53 | UCUUGCC | -1.08
54 | CCUCCCU | -0.661
55 | ACAGUUC | -0.672
56 | GGACAGG | 3.23
57 | UGACCCC | -0.428
58 | CCACGAU | -0.803
59 | UACGCUG | -0.195
60 | UCGAGCG | -0.0925
61 | GUUUAAU | -0.471
62 | CUGGGUU | 1.11
63 | CACAAGU | -0.497
64 | GCAAAUA | -0.242
65 | CAUACUC | -0.795
66 | AAUGCCG | -0.398
67 | GGGAAGC | 3
68 | UGUUAUU | -0.763
69 | AAUCCCC | -0.715
70 | CAGUGAA | 0.479
71 | GUAGAGC | 0.701
72 | AUCCUGA | -0.697

Row | Sequence | RNAcompete 7-mer binding Z-score
73 | UGUUGGC | -0.198
74 | UUAUAUG | -0.322
75 | ACGAAUU | -0.271
76 | GGUCCUG | 0.235
77 | AGCGGUG | 1.4
78 | UCCUAUG | -0.799
79 | GGAAAGU | 1.84
80 | UAGAAAC | -0.00148
81 | ACCUAGC | -0.712
82 | AGCACUG | -0.107
83 | AAUAUGA | 0.144
84 | AACCAGC | -0.573
85 | UGAAGGC | 1.21
86 | AUUAUAG | 0.0422
87 | CAACUCA | -0.719
88 | UGUCGGC | -0.391
89 | CACAGGC | 0.355
90 | CCCAGGA | -0.26
91 | ACGCGUU | -0.464
92 | GCCUCCU | -0.832
93 | AGUACAG | 0.752
94 | CGUCAUA | -0.519
95 | GUACUCC | -0.577
96 | GAUGUAC | -0.0379

Row | Sequence | RNAcompete 7-mer binding Z-score
97 | AUGUGUG | 0.884
98 | AAGGAGG | 4.62
99 | UUUCUUA | -0.734
100 | CCGUCGC | -0.752
101 | GCCUCCA | -0.643
102 | CAAGUAC | -0.551
103 | GCGCGUU | -0.453
104 | UAGGACA | 1.74
105 | CACAAGA | -0.391
106 | ACCGAUG | -0.267
107 | CUUUAGA | -0.766
108 | GCCUGAA | -0.613
109 | AGAGCUG | -0.0161
110 | GUGGGGG | 4.18
111 | UUAGUCU | -0.61
112 | UCGUAUC | -0.457
113 | CUACCGU | -0.708
114 | GAGCGCC | -0.53
115 | GUUUCCA | -0.377
116 | UUAACGU | -0.3
117 | AGACAAC | -0.526
118 | CCUCUAU | -0.901
119 | CAGGGUU | 2.05
120 | AACGACC | -0.486

Row | Sequence | RNAcompete 7-mer binding Z-score
121 | UCGUAGA | -0.3
122 | GAGACUG | -0.122
123 | AACGGGC | 2.33
124 | UAUGCCG | -0.752
125 | GCAUCGC | -0.431
126 | AACCGAG | -0.0233
127 | CGCGCGA | -0.296
128 | UGACCUC | -0.806
129 | CUGAGUU | -0.497
130 | AGGGGUG | 3.14
131 | GGGUUUG | 2.34
132 | CAUGCCG | -0.785
133 | CGUCCAG | -0.5
134 | ACACUUA | -0.701
135 | CUUUUGC | -0.952
136 | CCUCGUC | -0.766
137 | AGCUUUU | -0.792
138 | UGACAAU | 0.115
139 | UUGGGGG | 3.03
140 | GAGCAAU | -0.0233
141 | UGUUCGG | 0.024
142 | GGGGGUA | 3.52
143 | AGCAUUA | -0.238
144 | ACCUUUU | -1.03

Row | Sequence | RNAcompete 7-mer binding Z-score
145 | UCUACGC | -0.836
146 | GGGACCA | 1.9
147 | CAUCAUU | -0.664
148 | CUAGUAA | -0.541
149 | CAUGGUA | 0.319
150 | UGGACAG | 1.45
151 | AACGUCG | -0.103
152 | CGCUCUG | -0.657
153 | AGAAACC | -0.613
154 | CGCCAGG | 0.148
155 | CAACCCA | -0.617
156 | GAAAAAG | 1.52
157 | UGCCGCG | -0.657
158 | CAACUGC | -0.763
159 | UGUACGG | 0.701
160 | UGCUUCU | -0.737
161 | CGAUUAG | -0.0488
162 | UAAAUCG | -0.464
163 | AUUCGCA | -0.431
164 | AGUUACG | 0.0313
165 | UCCAAGA | -0.315
166 | GCCGAGC | -0.0998
167 | CCCACUG | -0.697
168 | GGUAUAU | 0.92

Row | Sequence | RNAcompete 7-mer binding Z-score
169 | AGGUAGC | 0.862
170 | AGCGAUC | -0.129
171 | GUUCUUC | -0.708
172 | ACCUACG | -0.821
173 | UUAUGUG | -0.256
174 | CGGUUUG | 0.232
175 | AAAUGUG | 0.465
176 | GAUCGUC | -0.417
177 | GCGGUGC | 0.836
178 | GGUUGUG | 1.78
179 | UAAGACG | 0.144
180 | CGUCACG | -0.562
181 | CUGAAUG | -0.38
182 | CGAUAGU | -0.078
183 | GAUGACG | 0.698
184 | CUUACAA | -0.785
185 | CGGCCCG | -0.668
186 | CAGGUGA | 1.54
187 | AAGCGAA | 0.221
188 | CACUGGU | -0.144
189 | CGCGCAC | -0.592
190 | GCAGUGU | 0.206
191 | GGAUAGA | 2.48
192 | GUCAGUC | -0.144
